The record followed here is the RNAGym collection of RNA variant scans (doi:10.1093/nar/gkz1192).

Read counts are not given, so values of variants with three or more changes are uncertain.

Sequences and labels used below:
B1: CPEB3 Ribozyme (parent)
chain: UAACAGGGGGCCACAGCAGAAGCGUUCACGUCGCAGCCCCUGUCAGAUUCUGGUGAAUCUGCGAAUUCUGCUGUAUAUCUC

Variants of B1 are the subject of this data set. In words: self-cleavage, relative activity (ratio to wild type); higher = more cleavage; in vitro, sequencing. In a few lines:
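Barcoded CPEB3 ribozyme mutants, produced by rounds of error-prone PCR, self-cleaved while being transcribed with T7 RNA polymerase for 5 hours at 37°C and during a subsequent 15 min DNase I step before EDTA was added. Sequencing of template-switched cDNA on Illumina gave cleaved and total reads, and DNA sequencing assigned barcodes to variants. Each variant's relative activity is its cleaved/total read fraction divided by the unmutated ribozyme's fraction, averaged across three batches. A variant needed a minimum of 5 reads.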
For the variant UAACAGGGGGCCACGGUAGAAGCGUUCUUGUCGCAGCCCCUGUCAGAUUCUGGUGGAUCUGCGAAUACUGCUGUGUAUCUC, the self-cleavage was found to be 0.16.
Consider UAACAGGGGGCCACGGCAGAAGCGUUCACGUCGCGGCCCCUGUCAGUUUCUGGUGAAUCUGCGAAUUCAGCUGUAUAUCUC, for which the self-cleavage came out at 0.08.
For UAACAGGGGGCCACGGCAGAAGCGUUCACGUCGCAGCCCCUGUCAGAUUCUGGUGAGUCUGCGAACCCUGCUGUAUACCUC, the self-cleavage was 0.1.
Take UAACAGGGGGCCACGGCAGAAGCGUUCACGUCGCAGCCCCUGUCAGUUUCUGGUGAAUCUGCGAAUUCUGCUGUUUAUCUC: the self-cleavage was determined as 0.38.
Turning to UAACAGGGGGCCACGGCAGAAGCGUUCGCGUCGCAGCCCCUGUCUGAUUCUGGUGAAUCUGCGAAUUCUGCUGUAUAUCUC, the self-cleavage was 0.28.
For the variant UAACAGGGGGCCACGGCAGAAGAGUUCACGUCGCAGCCCCUGUCAGAUUCUCGUGAAUCUGCGAAUCCUGCUGUAUAUCAC, the self-cleavage worked out at 0.05.
Turning to UAACAGGGGGCCACGGCAGAAGCGUUCUCGUCGCAGCCCCUGUCAGAUUCUGGUGGAUCUGUGAAUUCUGCUGUAUAUCCC, the self-cleavage was found to be 0.21.
Then UAACAGGGGGCCACGGCAGAAGUGUUCACGUCGCAGCCCCUGUCAGAUUCUGGUGAAUCUGCGGAAUCUGCUGUAUAUCUC, with 0.35; and UAACAGGGGGCCACGGCAGAAGCGUUCACGUCGCAGCCCCUGUCUGAUUCUGGCGAAUCUGCGAAUUCUGCUGUAUAUCUC, with 0.37; and UAACAGGGGGCCACGGCAGAAGCGUUCUCGUCGCAGCCCCUGUCAGAUUCUGGUGAAUCUGCGAGUUCCGCUGUAUAUCUC, with 0.14.
With UAACAGGGGGCCACGGCAGAAGCGUUCACGUCGCGGUCCCUGUCAGAUACUGGUGAAUCUGCGAAUUCUGCUGUAUAUCUC, the self-cleavage was 0.41.
The same measure for UAACAGGGGGCCACGGCAGAAGCGUUCACGUCGCAGCCCCUGUCAGAUUCUGGUGAAUCUGCGGAUUCUGCUGUAUUUCUC: 0.59; for UAACAGGGGGCCACGGUAGAAGCGUUCACGCCGCAGCCCCUGUCAGAUUCUGGUGAAUCUGCGAUUUCUGGUGUAUAUCUC: 0.08; for UAACAGGGGGCCACGGCAGAAGCGUUCACGUCGCAGCCCCUGUCAGGUUCUGGUGGAUCUGCGAGUUCCGCUGUAUAUCCC: 0.11.
The same measure for UAACAGGGGGCCACGGCAGAAGCGUUCACGUCGCUGCCCCUGUCAGAUUCUGGCGAAUCUGCGAAUUAUGCUGUAUAUCUC: 0.1; for UAACAGGGGGCCACGGCAGAAGCGUUCGCGUCGCAGCCUCUGUCAGAUUCUGGUGAAUCUGCGAAUUCUGCUGUUUAUCUC: 0.4.
For the variant UAACAGGGGGCCACGGCAGAAGCGUUCACGUCGCAGCCCCUGUCUGAUUCUGGUGAAUCUGCGAAUUCUGCCGUAUAUCUC, the self-cleavage was found to be 1.
Consider UAACAGGGGGCCACGGCAGAAGCGUUCACGUCGCAGCCCCUGUCAGAUUCUGGUGGAUCUGCGAAUCCUGCUGUAUAUCUC, for which the self-cleavage was 0.15.
As to UAACAGGGGGCCACGGCAGAAGCGUUCACGUCGCGGCCCCUGUCGGAUUCUGGUGAAUCUGCGAAUUCUGCAGUAUAUCUC, the self-cleavage turned out to be 0.28.
For UAACAGGGGGCCACGGCAGAAGCGUUUGCGUCGCAGCCCCUGUCAGAUUCUGGUGAAUCUGCGAAUUCUGCUGUAUAUCUC, the self-cleavage is 0.08.
Take UAACAGGGGGCCACGGCAGAAGCGUUCACGUCGCAGCCCCUGUCUGAUGCUGUUGAGUCUGCGAAUUCUGCUGUAUAUCUC: the self-cleavage turned out to be 0.09.
For the variant UAACAGGGGGCCACGGCAGAAGCGUUCACGUCGCAGCCCCUGUCGGAUUCUGGUGAAUCUGCGUAUUCUGCAGUCUAUCUC, the self-cleavage was determined as 0.17.
Then UAACAGGGGGCCACGGCAGAAGCGUUCACGUCGCAGCCCCUGUCCGAUUCUGGUGAAUCUGUGAAUUCUGCUGUAUAUCUC, with 0.14; and UAACAGGGGGCCACGGCAGAAGCGUUCACGUCGCAGCCCCUGUCAGAUUCUGGUGUAUCUGCGAAUUAUGCUGUAUACCUC, with 0.12; and UAACAGGGGGCCACGGCAGAAGCGUUCACGUCGCAGCCCCUGUCAGAUUCUGGUGGGUCUGCGAAUUCUGCUGUAUAUCUC, with 0.39.
Turning to UAACAGGGGGCCACGGCAGAAGCGUUUACGUCGCGGCCCCUGUCGGAUUCUGGUGGAUCUGCGAAUUCUGCAGCAUAUCUC, the self-cleavage is 0.06.
Then UAACAGGGGGCCACGGCAGAAGCGUUCGCGUCGCAGCCCCUGUCAGAUCCUGGUGAAUCUGCGAGUUCUGCGGUAUAUCUC, with 0.15; and UAACAGGGGGCCACGGCAGAAGCGUUCACGUCGCAGCCCCUGUCAGGUUCUGGUGAAUCUGCGAAUUCCGCUGUAUAUCUC, with 0.25; and UAACAGGGGGCCACGGCAGAAGCGUUCACGUCGCGGCCCCUGGCAGAUCCUGGUGAGUCUGCGAAUUCUGCUGUAUAUCUC, with 0.54.
For the variant UAACAGGGGGCCACGGCAGAAGCGUUCACGUCGCGGCCCCUGCCAGAUUCUGGUGAGUCUGCGAAUUCUGCUGUAUAUCUC, the self-cleavage was 0.24.
As for UAACAGGGGGCCACGGCAGAAGCGUUAACGUCGCAGCCCCUAUCAGAUUCUGGUGAAUCUGCGAAUUCUGCUGUAUAUCUC, the self-cleavage came to 0.09.
As to UAACAGGGGGCCACGGCAGAAGCGUUAACGUCGCAGCCCCUGUCAGAUUCUCGUGAGUCUGCGAAUUCUGCUGUAUAUCUC, the self-cleavage stood at 0.2.
Then UAACAGGGGGCCACGGAAGAAGCGUUCACGUCGCAGCCCCUGUCAGAUUCUGGUGAAUCUGCCAAUUCUGCUAUAUAUAUC, with 0.25; and UAACAGGGGGCCACGGCAGAAGCGUUCACGUCGCUGCCUCUGUCAGAUUCUGGUGAGUCUGCGAAUCCUGCUGUAUAUCUC, with 0.06.
